Measured values taken from PubChem BioAssay AID485294 (National Center for Advancing Translational Sciences (NCATS), 2010).
In all, about 370,000 compounds went through this assay and about 150 (0.041%) were called active. This list was built around the results that the source calls inconclusive (neither active nor inactive); the mix of calls is not that of the screen. The call rests on the fitted dose curve; in most records, active means well fitted inhibition curve with a large enough effect; inconclusive means small, poorly fitted or top-dose-only effect; inactive means flat fitted curve, though single readings scatter. No potency is given beside an inconclusive call; the fits are too rough.
Further: nearly all actives have a fitted effect of over 25% in size.
Potency means the concentration at half of the fitted maximal effect; tags describe the fitted curve by direction and shape.
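Wherever activity change, negative = inhibition is given: 0% = no-compound wells and -100% = no-enzyme wells.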

The molecules below were run against Beta-lactamase (Escherichia coli (strain K12)) (UniProt P00811) (assay: qHTS Inhibitors of AmpC Beta-Lactamase (assay with detergent)). Details: AmpC hydrolysis of nitrocefin, absorbance 480 nm, 0.01% Triton; activity change, negative = inhibition: at 114 µM (top of the series).
Sequence of UniProt P00811 (P00811 whole entry, looked up): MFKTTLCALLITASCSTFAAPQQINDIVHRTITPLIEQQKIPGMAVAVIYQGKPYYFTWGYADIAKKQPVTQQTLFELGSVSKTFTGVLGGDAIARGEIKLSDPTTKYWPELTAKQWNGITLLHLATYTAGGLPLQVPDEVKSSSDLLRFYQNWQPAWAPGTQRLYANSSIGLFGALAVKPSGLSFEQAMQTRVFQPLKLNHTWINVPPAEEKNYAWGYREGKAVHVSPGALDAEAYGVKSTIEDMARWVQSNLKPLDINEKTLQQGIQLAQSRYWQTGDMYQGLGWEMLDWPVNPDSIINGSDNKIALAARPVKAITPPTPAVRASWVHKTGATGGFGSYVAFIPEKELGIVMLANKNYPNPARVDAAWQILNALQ
Method in brief: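 AmpC (5.3 nM in the dispensed reagent) in 20 mM phosphate pH 7.0 with 0.01% (detergent screen) or 0.0001% Triton X-100 was preincubated with compounds for 15 min at room temperature. Nitrocefin was then added from an 800 uM solution, and hydrolysis was followed at 480 nm.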
For `CCN(CC(=O)Nc1c(F)cccc1F)C(=O)CCNC(=O)c1ccccc1OC`, the Potency was inconclusive [inhibitor, full curve, poor fit]. For `O=C(Nc1ccc(Cl)cn1)c1ccc(Oc2ccccc2)cc1`, the Potency was inconclusive [inhibitor, partial curve, poor fit]. `CCOC(=O)C(C)Sc1nnc(Cc2cc(=O)[nH]c(=O)[nH]2)n1-c1ccc(Cl)cc1` (centres undefined) was tested, and the Potency was inconclusive [inhibitor, full curve, poor fit]. For `CCN(C(=O)Cn1nc(Cc2cccnc2)c2ccccc2c1=O)c1cc(C)ccc1C`, the “activity change, negative = inhibition” value was inactive: 10.4%. `Cc1ccc(C(=O)Nc2cc3c(cc2Cl)OCCCO3)cc1` was tested, and the Potency was inconclusive [inhibitor, partial curve, poor fit]. `COc1ccccc1NC(=S)N(CCCN1CCOCC1)Cc1cn(C)c2ccccc12` was tested, and the Potency was inconclusive [inhibitor, partial curve]. `Cc1ccc(C(=O)Nc2nc3ccccc3c(=O)s2)cc1` was tested, and the Potency was inconclusive [inhibitor, partial curve, poor fit]. For `O=S(=O)(c1ccc(SCc2ccccc2)nc1)N1CCCC1`, the Potency was inconclusive [inhibitor, full curve, poor fit]. For `CN(C)C1=NC[C@H](Cc2ccccc2)N1CCCC1CCCC1`, the Potency was inconclusive [inhibitor, full curve, poor fit]. For `Cc1cc(C)cc(NC(=O)C(Cc2ccccc2)N2Cc3ccccc3C2=O)c1` (centres undefined), the “activity change, negative = inhibition” value was inactive: -0.406%. For `Cc1nn(Cc2ccc(Cl)cc2)c(C)c1NC(=O)c1cc(C(C)C)on1`, the “activity change, negative = inhibition” value was inactive: -13%. With `FC(F)(F)c1cccc(CN2CCSCC2)c1` the Potency was inconclusive [inhibitor, full curve, poor fit]. For `Fc1ccc(/C=N/N2CCCCC2)c(F)c1`, the Potency was inconclusive [inhibitor, single point]. With `COc1cc(OC)nc(NC(=O)CSc2nc3ccccc3o2)n1` the Potency was inconclusive [inhibitor, partial curve]. For `CCOc1ccc(C(=S)N2CCOCC2)cc1OCC`, the Potency was inconclusive [inhibitor, full curve, poor fit]. With `COc1ccccc1Cn1c(=S)[nH]c2cc(C(=O)N3CCN(C)CC3)ccc2c1=O` the Potency was inconclusive [inhibitor, partial curve, poor fit]. With `COc1ccc(N=Cc2cc(Cc3ccccc3Cl)cc([N+](=O)[O-])c2O)cc1OC` the “activity change, negative = inhibition” value was inactive: 4.58%. With `O=C(CSc1nnnn1-c1ccc2c(c1)OCCO2)OC1CCCCC1` the “activity change, negative = inhibition” value was inactive: -4.97%. For `Cc1nnc(SCC(=O)N2CCN(S(=O)(=O)c3ccccc3)CC2)[nH]c1=O`, the “activity change, negative = inhibition” value was inactive: 0.622%.
